Reference: PubChem BioAssay AID894 (National Center for Advancing Translational Sciences (NCATS), 2007)
Hit rate of the full screen: of about 150,000 compounds, about 6,500 (4.3%) were called active. Inconclusive results, whose numbers are uncertain, are shown with a selection of clear calls. The call rests on the fitted dose curve; in most records, active means well fitted inhibition curve with a large enough effect (not every such curve was filed as active); inconclusive means small, poorly fitted or top-dose-only effect, or another doubt; inactive means no such curve, though single readings can be large or run the other way. Potencies of inconclusive entries are left out as doubtful fits.
On the % scale 0 is the no-effect control and ±100 the full control effect; potency means the concentration at half of the fitted maximal effect; tags describe the fitted curve by direction and shape.

Each compound was assayed against 15-hydroxyprostaglandin dehydrogenase [NAD(+)] (Homo sapiens) (UniProt P15428) (assay: qHTS Assay for Inhibitors of HPGD (15-Hydroxyprostaglandin Dehydrogenase)). Conditions: purified HPGD, NADH fluorescence kinetic, PGE2 substrate; activity change, negative = inhibition: hits give low values.
Chain of UniProt P15428 (P15428 whole entry, looked up): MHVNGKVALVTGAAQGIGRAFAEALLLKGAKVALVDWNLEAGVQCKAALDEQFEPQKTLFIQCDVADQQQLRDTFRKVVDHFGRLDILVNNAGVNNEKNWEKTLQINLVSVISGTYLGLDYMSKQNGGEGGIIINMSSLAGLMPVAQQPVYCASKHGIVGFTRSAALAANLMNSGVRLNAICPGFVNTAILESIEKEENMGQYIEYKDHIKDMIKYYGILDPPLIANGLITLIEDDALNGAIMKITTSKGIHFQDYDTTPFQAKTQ
Procedure, shortened: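 20 nM HPGD preincubated 15 min at room temperature with compound in 50 mM Tris-HCl pH 8, 0.01% Tween 20. Started with 1 mM NAD+ and 30 uM prostaglandin E2; NADH fluorescence (360/450 nm) read 5 times over 30-s intervals, last minus first.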
`N#CCCn1c(=O)c(-c2ccc(Cl)cc2)nc2cnc(OCc3ccccc3)nc21` was tested, and the Potency was inconclusive [inhibitor, partial curve]. For `COc1ccc(OC)c2[nH]c(=O)c(CCNS(=O)(=O)c3ccc(Cl)cc3)cc12`, the Potency was inconclusive [inhibitor, partial curve]. For `CCOC(=O)c1c(NC(=O)COC)sc(C(C)=O)c1C`, the Potency was inconclusive [inhibitor, partial curve]. With `COc1ccc(-c2cc(C(=O)Nc3sc4c(c3C#N)CCCC4)c3ccccc3n2)cc1` the Potency was inconclusive [inhibitor, partial curve]. With `O=S(=O)(Nc1cccc2cccnc12)c1ccc(S(=O)(=O)N2CCCC2)cc1` the activity change, negative = inhibition was inactive: -5.83%. With `COC(=O)C(C)Oc1ccc2c(-c3cccc([N+](=O)[O-])c3)cc(=O)oc2c1` (stereo not drawn) the Potency was inconclusive [inhibitor, partial curve]. In the case of `CCOC(=O)c1sc2nc(NC(=O)C3CC3)sc2c1C`, the Potency is reported as inconclusive [inhibitor, partial curve]. For `COC(=O)c1cc(C(=O)OC)cc(-n2c(C)cc(C(=O)COC(=O)CNS(=O)(=O)c3ccc(C)cc3)c2C)c1`, the activity change, negative = inhibition was inactive: -12.2%. `O=C(Nc1cccc(NC(=O)c2nccc3ccccc23)c1)c1ccco1` was tested, and the activity change, negative = inhibition was inactive: -7%. For `CCCCNC(=O)c1onc(CSc2cccc(OCC)c2)c1C(=O)O`, the Potency was inconclusive [inhibitor, partial curve]. With `CCOC(=O)c1c(NC(=O)c2cc(CC(C)C)on2)sc(C(C)=O)c1C` the Potency was inconclusive [inhibitor, partial curve]. `COc1ccc(Nc2nc(C)nc3c2nnn3Cc2ccccc2)cc1OC` was tested, and the Potency was inconclusive [inhibitor, partial curve]. `O=C(C/C=N/OCc1c(Cl)cccc1Cl)c1ccccc1` was tested, and the Potency was inconclusive [inhibitor, partial curve]. With `Clc1ccc(OCCCc2nc(-c3ccncc3)no2)c(Cl)c1` the Potency was active: 28.2 µM. `Cc1cc(NCCCN2CCOCC2)n2ncc(-c3ccc(Cl)cc3)c2n1` was tested, and the Potency was inconclusive [inhibitor, partial curve]. For `CCOC(=O)c1cc(-c2ccc(OC)cc2)nc2c1c(C)nn2CCC#N`, the Potency was inconclusive [inhibitor, partial curve]. In the case of `O=C(Nc1ccccc1N1CCCCC1)c1ncoc1-c1ccc(F)cc1`, the Potency is reported as inconclusive [inhibitor, single point]. For `CCCCOc1ccc(C(=O)Nc2ccc(N3CCN(C)CC3)cc2)cc1`, the Potency was inconclusive [inhibitor, single point].
